Sequences and labels used below:
B1: LINE1-full (parent)
chain: UACGUAGGUGGUUUUCCCCUGAUAGUGCUAAGGGGGCCUGGAAGUUUGGACUGGGCAGAGCUCAACACAGCGUGGCAAAGUGGCUGUGGCUAGACUGCCUCUCUGGAUUCCUCGUCACUCAGCAGGGCAUCUCUGAGAGAAAUGCC

Read counts are not given, so values of variants with three or more changes are uncertain.

39 variants from the RNAGym collection of RNA variant scans (doi:10.7554/elife.90254) can be followed below.

In this data set the parent is B1. Briefly: self-cleavage, relative activity (ratio to wild type); higher = more cleavage; in vitro, sequencing; the parent is a self-cleaving ribozyme.
For the variant UACGUAGGUGGUUUACCCCUGAUAGUGCUAAGGGGGCCUGGAAGUAUGGGCUGGGCAGAGCUCAACACAGCGUGGCAAAGUGGCUGUGGCUAGACUGCCUCUCUGGAUUCCUCGUCACUCAGCAGGGCGUCUCUGAGAGAAAUGCC, the self-cleavage stood at 1.04.
For UACGUAGGUGGUUUACCCCUGAUAGUGCUAAGGGGACCUGGAAGUUUGGACUGGGCAGAACUCAACACAGCGUGGCAAAGUGGCUGUGGCUAGACUGCCUCUCUGGAUUCCUCGUCACUCAGCAGGGCACCUCUGAGAGAAAUGCC the value was 0.07; for UACGUAGGUGGUUUACCCCUGAUAGUGCUAAGGGGGCCAGGAAGUUUGGACAGGGCAGAGCUCAACUCAGCGUGGCAAAGUGGCUGUGGCUAGACUGCCUCUCUGGAUUCCUUGUCACUCAGCAGGGCAUCUCUGAGAGAAAUGCC, 0.11.
For the variant UACGUAGGUGGUUUACCCCUGAUAGUGGUAAGGGGGCCUGGAAGUUUGGACUGGGCAGAGCUCAACACAGCGUGGCAAAGUGGCUGUGGCUCGACUGCCUCUCUGGAUUCCUCGUCACUCAGCAGGGCAUCUCUAAGAGAAAUGCC, the self-cleavage was found to be 0.52.
As to UACGUAGGUGGUUUACCCCUGAUAGUGCUAAGGGGGCCUGGAAGUUUGGACUGGGCAGAGCUCAACACAGCGUGGCAAAGUGGCUGUGGCUAGGCUGCCUCUCUGGAUUCCUCGACACUCAGCAGGGCAUCUCUGAGAGAGAUGCC, the self-cleavage was found to be 0.38.
As to UACGUAGGUGGUUUACCCCUGAUAGUGCUAAGGGAGCCUGGAAGUUUGGACUGGGCAAAGCUCAACACAGCGUGGCAAAGUGGCUGUGGCUAGACUGCCUCUCUGGAUUCCACGUCACUCAGCAGGGCAUCUCUGAGAGAAAUGCC, the self-cleavage came to 0.02.
Regarding UACGUAGGUGGUUUACCCCUGAUAGCGCUAAGGGUGCCUGGAAGUAUGGACUGGGCAGAGCUCAACACAGCGUGGUAAAGUGGCUGUGGCUAGACCGCCUCUCUGGAUUCCUCGUCACUCAGCAGGGCAUCUCUGAGAAAAAUGCC, the self-cleavage is 0.13.
As for UACGUAGGUGGUUUACCCCUGAUAGUGCUAAAGGGGCCUGGAAGUUUGGACUGGGCAGAGCUCAACACAGCGUGGCAAAGUGGCUGUGGCUAGACUGCCUCUCUGGAUUCCUCGUCACUCAGCAGGGCAUCUCUAAGAGAAAUGCC, the self-cleavage was 2.21.
To UACGUAGGUGGUUUACCCCUGAUAGUGCUAAGGGGGCCUGGAAGUUUGGACUGGGCAGAGCUCAACACUGCGUGGCAAAGUGGCUGUGGCUAGACUGCCUCUCUGGAUUCCUCGUCACUCAGCAGGGCAUCCCUGAGAGAAAUGCC belongs 0.14; to UACGUAGGUGGUUUACCCCUGAAAGUGCUAAGGGGGCCUGGGAGUUUGGACUGGGCAGAGCUCAACACAGCGUGGCAAAGUGGCUGUGGCUAGACUGCCUCUCUGGAUUCCUCGUCACUCAGCAGGGCGUCUCUGAGGGAAAUGCC, 1.53; to UACGUAGGUGGUUUACCCCUGAUAGUGCUAAGGGGGCCUGGAAGUUUGGACUGGGCAGAGCUCAACACAGCGUGGCAGAGUGGCUGUGGCUAGACUGCCUCUCUGGAUUCCUCGUCACUGGGCAGGGCAUCUCUGAGAGAAAUGCC, 1.02.
To UACGUAGGUGGUUUACCCCUGAUAGUGCUAAGGGGGCAUGGAAGUUUGGACUGGGCAGAGCCCAACACAGCGUGGCAAAGUGGCUGUGGCUAGACUGCCUCUCUGGAUUCCUCGUCACUCAGCAGGGCAUCUCUGUGAGAAAUGCC belongs 0.03; to UACGUAGGUGGUUUACCCCUGAUAGUGCUAAGGGGGCCUGGAAGUUUGGACUGGGCAGAGCUCAACACAGCGUGGCAAAGUGGCUGUGGCUAGUCUGCCUCUCUGGAUUCCUCGUCACUCAGCAGGGCAUCUCUGAGAGAGAUGCC, 0.26.
To UACGUAGGUGGUUUACCCCUGAUAGUGCUAAGGGGGCCUGGAAGUUUGGACUGGGCAGAGCUCAACACAGCGUGGCAAAGUGGCUGUGGCUAGACUGCAUCUCUGGAUUCCUCGUCACUCAGCAGGGCAUCUCUGAGGGGAAUGCC belongs 0.08.
Regarding UACGUAGGUGGUUUACCCCUGAUAGAGCUAAGGGGGCCUGGAAGUUUGGACUGGGCAGAGCUCACCACAGCGUGGCAAAGAGGCUGUGGCUAGACUGCCUCUCUGGAUUCCUCGUCACUCAGCAGGGCAUCUCUGAGAGAAAUGCC, the self-cleavage is 0.04.
For UACGUAGGUGGUUUACCCCUGAUAGUGCUAAGGGGGCCGGGAAGUUUGGACUGGGCAGAGCUCAACACAGCGUGGCAAAGUGGCUGAGGCUAGACUGCCUCUCUGGAUUCCUCGUCACUCAGCAGGGCAUCUCUGAGAGAAAUGCC the value was 0.09; for UACGUAGGUGGUUUACCCCUGAUAGUGCUAAGGGGGCCUGGAAGUUUGGACUGGGCAGAGCUCAACACAGCGUGGCAAAGUGGCUGUGGCUAGACUGCCUCUCUGGAUUCCUCGUCACUCAGCAGGGCAUCUCUGGGGGAAAUGCC, 1.02.
To UACGUAGGUGGUUUACCCCUGAUAGUGCUAAGGGGGCCUGGAAGUUUGGACUGGGCAGAGCUCAACACAGCGUGGCAACGUGGCUGUAGCUAGACUGCCUCUCUGGAUUCCUCGUCACUCAGCAGGGCAUCUCUGAGAGAAAUGCC belongs 0.06.
As for UACGUAGGUGGUUUACCCCGGAUAGUGCUAAGGGGGCCUGGGAGUUUGGACUGGGCAGAGCUCAACACAGCGUGGCAAAGUGGCUGUGGCUAGACUGCCUCUCUGGAUUCCUCGUCACUCAGCAGGGCAUCUCUGAGAGAAAUGCC, the self-cleavage was determined as 1.11.
For UACGUAGGUGGUUUACCCCUGAUAGUGCUAAGGGGGCCUGGAAGUUUGGACAGGGCAGAGCUCAACACGGCGUGGCAAAGUGGCUGUGGCUAGACUGCCUCUCCGGAUUCCUCGUCACUCAGCAGGGCAUCUCUGAGAGAAAUGCC the value was 0.4.
Consider UACGUAGGUGGUUUACCCCUGAUAGUGCUAAGGGGGCCUGGAAGUUUGGACUGGGCAGAGCUCAACACAGCAUGGCAAAGUGGCUGUGGCUAGACUGCCUCUCUGGGUUCCUCGUCACUCAGCAGGGCAUCUCUGAGAGAAAUGCC, for which the self-cleavage was 1.14.
With UACGUAGGUGGUUUACCCCUGAUAGAGCUAAGGGGGCCUGGAAGUUUGGACUGGGCAGAGCUCAACACAGCGUGGCAAAGUGGCUGUGGCUAGACUGCCUCUCUGGAUUCCCCGUCACUCAGCAGGGCAUCUCUGAGAGGAAUGCC, the self-cleavage worked out at 0.33.
To UACGUAGGUGGUUUAACCCUGAUAGUGCUAAGGGGGCCUGGAAGUUUGGACUGGGCAGAGCUCAACACAGCGUGGCAGAGUGGCUGUGGCUAGACUGCCUCUCUGGAUUCCUCGUCACUCAGCAGGGCAUCUCUGAGAGGAAUGCC belongs 0.27; to UACGUAGGUGGUUUACCCCUGAUAGUGCUAAAGGGGCCUGGAAGUUUGGACUGGGCAGAGCUCAACACAGCGUGGCAAAGUGGCUGUGGCUAGACUGCCUCUCUGGAUUCCUCGUCACACAGCGGGGCAUCUCUGAGAGAAAUGCC, 0.68.
Take UACGUAGGUGGUUUACCCCUGAUAGUGCUAAGGGGGCCUGGAAGUUUGGACUGGGCAGAGCUCAACACAGCGUGGCAAGGUGGCUGUGGCCAGACUGCCUCUCUGGACUCCUCGUCACUCAGCAGGGCAUCUCUGAGAGAAAUGCC: the self-cleavage turned out to be 1.23.
To UACGUAGGUGGUUUACCCCUGAUAGUGCUAAGGGGGCCUGGAAGUUAGGACUGGGCAGAGCUCAACACAGCGUGGCAAAGUGGCUGUGGCUAGACUACCUCUCUGGAUUCCUCGUCACUCAGCAGGGCAUCUCUGAGAGAAAUGCC belongs 0.07.
Consider UACGUAGGUGGUUUACCCCUGAUAGUGCUAAGGGGGCCUGGAAGUUUGGACUGGGCAGAGCUCAACACAGCGUGGCAGAGUGGCAGUGGCUAGACUGCCUCUCUGGAUUCCUCGUCACUCGGCAGGGCAUCUCUGAGAGAAAUGCC, for which the self-cleavage turned out to be 0.11.
With UACGUAGGUGGUUUACCCCUGAUAGCGCUAAGGGGGCCUGGAAGUCUGGACUGGGCAGAGCUCAAUACAGCGUGGCAAAGUGGCUGUGGCUAGACUGCCUCUCUGGAUUCCUCGUCACUCAGCAGGGCAUCUCUGAGAGAAAUGCC, the self-cleavage turned out to be 0.
For UACGUAGGUGGUUUACCCCUGAUAGUGCUAAGGGGGCCUGGAAGUUUGGACCGGGCAGAGCUCAACACAGCGUGGCAAAGUGGCUGUGGCUAGACUGCCUCUCUGGAUUCCUCGUCACUCAGCAGGGCAUCUCUGAGAGGAAUGCC the value was 1.13; for UACGUAGGUGGUUUACCCCUGAUAGUGCUAAGGGGGCCUGGAAGUUUGGACUGGGCAGAACUCAACACAGCGUGGCAAGGUGGCUGUGGCUAGACUGCCUCUCUGGAUUCCUCGCCACUCAGCAGGGCAUCGCUGAGAGAGAUGCC, 0.23.
In the case of UACGUAGGUGGUUUACCCCUGAUAGAGCUAAGGGGGCCUGGAAGUUUGGACUGGGCAGAGCUCAACACAGCGUGGCAUAGUGGCUGUGGCUAGGCUGCCUCUCUGGAUUCCUCGACACUCAGCAGGGCAUCUCUGAGAGAAAUGCC, the self-cleavage was 0.78.
In the case of UACGUAGGUGGUUUACCCCUGAUAGUGCUAAGGGGGCCCGGGAGUUUGGACUGGGCAGAGCUCAACACAGCGUGGCAAAGUGGCUGUGGCUAGACUGCCUCUCUGGAUUCCUCGUCACUCAGCAGGGCAUCUCUGAGAGAAAUGCC, the self-cleavage was found to be 0.48.
To UACGUAGGUGGUUUACCCCGGAUAGUGCUAAGGGGGCCUGGAAGUUUGGACUGGGUAGAGCUCAACACAGCGUGGCAAAGUGGCUGUGGCUAGACUGCCUCUCUGGAUUCCUCGUCACUCAGCAGGGCAUCUCCGAGAGAAAUGCC belongs 0.41.
As for UACGUAGGUGGUUUACCCCUGAUAGUGCUAAGGGGGCCUGGAAGUUUGGACUGAGCAGAGCUCAACACAGCGUGGCAAAGUGGCUGUGGCUAGACUGCCACUCUGGAUUCCUCGUCACUCAGCAGGGCAUCUCUGAGAGAAAUGCC, the self-cleavage came to 0.18.
As to UACGUAGGUGGUUUACCCCUGAUAGUGCUAAGGGGGCUUGGAAGUUUGGACUGGGCAAAGCUCAACACAGCGUGGCAAAGUGGCUGUGGCUAGACUGCCUCUCUGGAUUCCUCGUCACUCAGCAGGGCAUCUCUGAGAGAGAUGCC, the self-cleavage was 0.07.
For UACGUAGGUGGUUUACCCCUGAUAGAGCUAAGGGGGCCUGGAAGUCUGGACUGGGCAGAGCUCAACACAGCGUGGCAAAGUGGCUGUGGCUAGACUGCCUCUCUGGAUUCCUCGUCACUCAGCAGGGCAUCUCUGAGAGAAAUGCC the value was 1.79; for UACGUAGGUGGUUUACCCCUGAUAGUGCUAAGGGGGCCUGGAAGUUCGGACUGGGCAGAGCUCAACACAGCGUGGCAAAGUGGCUGUGGCUAGACUGCCUCUCUGGAUUCCUCGUCACUCAGCAGGGCAUCUCUGUGAGAAAUGCC, 1.84.
For UACGUAGGUGGUUUAUCCCUGAUAGUGCUAUGGGGGCCUGGAAGUUUGGACUGGGCAGAGCUCAACACAGCGUGGCAAAGUGGCUGUGGCUAGACUGCCUCUCUGGAUUCCUCGUCACUCAGCGGGGCAUCUCUGAGAGAAAUGCC, the self-cleavage amounted to 0.25.
As to UACGUAGGUGGUUUACCCCUGAUAGUGCUAAGGGGGCCUGGAAGUUUGGACUGGGCAGAGCUCAACACAGCGUGGCAUAGUGGCUGUGGCUAGACUGCCUCUCUGGAUUCCUCGUCACUCAGCAGGGCAUCUCUGGGAGAAACGCC, the self-cleavage was 1.95.
